# The campaign covered roughly 39,000 compounds. About 220 (0.56%) showed activity. This is one part of the list.
# Test system: Escherichia coli K-12 BW25113
# Assay: relative growth (OD600 normalised to plate interquartile mean) (fraction); higher = less growth inhibition, active = 0.2 or less
# Conditions: 50 µM; LB; incubation time: overnight (16-24 h)
# 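Note: static incubation at 37 °C against the wild-type strain, values averaged over two biological replicates.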
row,SMILES,relative growth
1,C[C@H]1CN([C@@H](C)CO)C(=O)c2cc(-c3ccncc3)cnc2O[C@H]1CN(C)S(=O)(=O)c1ccc(F)cc1,inactive: 1.01
2,C[C@@H]1CN([C@H](C)CO)C(=O)Cc2cc(NS(=O)(=O)c3ccc(F)cc3)ccc2O[C@@H]1CN(C)Cc1ccc(-c2ccccc2)cc1,inactive: 1.07
3,CC(C)NC(=O)N(C)C[C@@H]1Oc2ccc(NS(=O)(=O)c3ccc(F)cc3)cc2CC(=O)N([C@H](C)CO)C[C@H]1C,inactive: 0.996
4,CO[C@H]1CN(C)C(=O)c2cc(NS(=O)(=O)CC(F)(F)F)ccc2OC[C@@H](C)N(Cc2cccnc2)C[C@@H]1C,inactive: 1.02
5,Cc1cc(-n2c(=O)[nH]c(=O)n(C)c2=O)ccc1Oc1ccc(SC(F)(F)F)cc1,inactive: 1.01
6,Cc1cccc(S(=O)(=O)N2C[C@H](O)COC[C@H]3O[C@H](CC(=O)N4CCN(C)CC4)CC[C@@H]32)c1,inactive: 1
7,COc1ccc(CN(C)C[C@@H]2OCCCC[C@@H](C)Oc3ccc(NC(=O)NC(C)C)cc3C(=O)N([C@@H](C)CO)C[C@@H]2C)cc1,inactive: 0.983
8,COc1cccc(S(=O)(=O)N(C)C[C@@H]2Oc3ncc(Br)cc3C(=O)N([C@H](C)CO)C[C@@H]2C)c1,inactive: 1
9,Cc1ccc(S[C@]2(C(=O)NC3CC3)CC(=O)N(Cc3ccccc3C(F)(F)F)[C@@H]2c2ccc(CO)cc2I)cc1,inactive: 0.998
10,COc1ccc(N)cn1,inactive: 1.02
11,NCC1CCN(S(=O)(=O)C2CC2)CC1,inactive: 0.996
12,C[C@@H]1CN([C@H](C)CO)C(=O)c2cc(NC(=O)CCC(F)(F)F)ccc2O[C@@H](C)CCCCO[C@@H]1CN(C)Cc1ccc(C(F)(F)F)cc1,inactive: 0.914
13,C[C@H](CO)N1C[C@H](C)[C@@H](CN(C)S(=O)(=O)c2ccccc2)OCCCC[C@H](C)Oc2ccc(NC(=O)Nc3ccc(C(F)(F)F)cc3)cc2C1=O,inactive: 0.994
14,C[C@@H]1CN([C@H](C)CO)C(=O)c2cc(C#Cc3ccccn3)cnc2O[C@@H]1CN(C)C(=O)c1cnccn1,inactive: 1.01
15,Cn1cnc(CCNC(=O)C[C@H]2CC[C@@H]3[C@H](COC[C@@H](O)CN3C(=O)Nc3ccc(C(F)(F)F)cc3)O2)c1,inactive: 0.952
16,COc1ccc(NC(=O)N(C)C[C@@H]2OCCCC[C@H](C)Oc3ccc(NS(=O)(=O)c4ccc(F)cc4)cc3C(=O)N([C@@H](C)CO)C[C@@H]2C)cc1,inactive: 1.01
17,C[C@H](CO)N1C[C@H](C)[C@H](CN(C)C(=O)c2cnccn2)Oc2ncc(/C=C/c3ccccc3)cc2C1=O,inactive: 0.952
18,C[C@@H]1CN([C@H](C)CO)C(=O)c2cc(NC(=O)CCCN(C)C)ccc2O[C@H]1CN(C)S(=O)(=O)c1ccc(Cl)cc1,inactive: 0.995
19,C[C@@H]1CN([C@@H](C)CO)C(=O)c2cccc(NC(=O)C3CC3)c2O[C@H]1CN(C)S(=O)(=O)c1ccccc1,inactive: 0.994

row,SMILES,relative growth
1,COCCN1CCN(C)C2(CCN(C(=O)c3csnn3)CC2)C1=O,inactive: 0.933
2,Cc1noc(C)c1S(=O)(=O)Nc1cccc2c1O[C@H](CN(C)C(=O)NC1CCCCC1)[C@H](C)CN([C@@H](C)CO)C2=O,inactive: 1.01
3,C[C@@H]1CN([C@H](C)CO)C(=O)Cc2cc(NC(=O)Cc3ccccc3)ccc2O[C@@H]1CN(C)C(=O)Nc1ccc(C(F)(F)F)cc1,inactive: 1
4,Cc1ccc(-c2ccc3c(c2)O[C@@H](CN(C)Cc2cncnc2)[C@@H](C)CN([C@H](C)CO)S3(=O)=O)cc1,inactive: 1.03
5,Cc1noc(C)c1NC(=O)Nc1ccc2c(c1)CC(=O)N([C@@H](C)CO)C[C@H](C)[C@@H](CN(C)S(=O)(=O)c1cn(C)cn1)O2,inactive: 1
6,C[C@@H]1CN([C@H](C)CO)C(=O)CCCn2cc(nn2)CO[C@@H]1CN(C)S(=O)(=O)c1ccc(Oc2ccccc2)cc1,inactive: 0.995
7,C[C@H]1CN([C@@H](C)CO)S(=O)(=O)c2ccc(C#CC3CC3)cc2O[C@@H]1CN(C)C(=O)Cc1ccncc1,inactive: 0.995
8,Nc1ncnc2c1ncn2[C@@H]1O[C@H](COP(=O)(O)OP(=O)(O)OP(=O)(O)OP(=O)(O)OC[C@H]2O[C@@H](n3cnc4c(N)ncnc43)[C@H](O)[C@@H]2O)[C@@H](O)[C@H]1O,inactive: 0.998
9,CC(=O)OC[C@@H](OC(C)=O)[C@H](OC(C)=O)[C@H](OC(C)=O)[C@H](OC(C)=O)[C@@H](COC(C)=O)OC(C)=O,inactive: 0.892
10,C(=N\c1ccccc1)/c1ccccc1,inactive: 0.988
11,CC(C)N(C)C(=O)c1cccc(NC(=O)c2ccncc2)c1OCCCN(C)Cc1ccc(Cl)cc1,inactive: 1.01
12,Cc1ccc(S(=O)(=O)N(C)C[C@@H]2Oc3cc(C#Cc4ccncc4)ccc3S(=O)(=O)N([C@H](C)CO)C[C@@H]2C)cc1,inactive: 1
13,CC(C)NC(=O)N(C)C[C@H]1Oc2ccc(NC(=O)CCN3CCOCC3)cc2C(=O)N([C@@H](C)CO)C[C@H]1C,inactive: 0.984
14,C[C@@H]1CN([C@@H](C)CO)C(=O)c2cccc(NC(=O)c3nc4ccccc4s3)c2O[C@@H]1CN(C)S(C)(=O)=O,inactive: 0.995
15,C[C@@H]1CCCCO[C@H](CN(C)S(=O)(=O)c2ccccc2)[C@@H](C)CN([C@H](C)CO)C(=O)c2cc(NC(=O)NC3CCCCC3)ccc2O1,inactive: 1
16,CCC[C@@H](O)C#Cc1cnc2c(c1)C(=O)N([C@H](C)CO)C[C@H](C)[C@H](CN(C)S(=O)(=O)c1ccc(C#N)cc1)O2,inactive: 0.986
17,S=C1C=C(N2CCCCC2)C[C@H](c2ccc(Cl)cc2)S1,inactive: 0.944
18,C[C@@H]1CCCCO[C@H](CN(C)C(=O)Nc2ccc(C(F)(F)F)cc2)[C@@H](C)CN([C@H](C)CO)C(=O)c2cc(NC(=O)Nc3cccc4ccccc34)ccc2O1,inactive: 0.942
19,CC(C)C#Cc1cnc2c(c1)C(=O)N([C@H](C)CO)C[C@H](C)[C@@H](CN(C)S(=O)(=O)c1cn(C)cn1)O2,inactive: 1.01

# Source: the supplement of paper PMC9446081
